Assay results published in PMC4336329 (PLoS ONE, 2015).
Among all 310,000 compounds or so, about 2,200 (0.71%) showed an effect of 50% or more. Effects have a minus sign here. This is one part of the list.

biological target: human ether-à-go-go-related gene (hERG) potassium channel (human, UniProt Q12809); experiment: primary screen, population patch clamp on CHO cells stably expressing hERG
Sequence (Q12809 whole entry, looked up): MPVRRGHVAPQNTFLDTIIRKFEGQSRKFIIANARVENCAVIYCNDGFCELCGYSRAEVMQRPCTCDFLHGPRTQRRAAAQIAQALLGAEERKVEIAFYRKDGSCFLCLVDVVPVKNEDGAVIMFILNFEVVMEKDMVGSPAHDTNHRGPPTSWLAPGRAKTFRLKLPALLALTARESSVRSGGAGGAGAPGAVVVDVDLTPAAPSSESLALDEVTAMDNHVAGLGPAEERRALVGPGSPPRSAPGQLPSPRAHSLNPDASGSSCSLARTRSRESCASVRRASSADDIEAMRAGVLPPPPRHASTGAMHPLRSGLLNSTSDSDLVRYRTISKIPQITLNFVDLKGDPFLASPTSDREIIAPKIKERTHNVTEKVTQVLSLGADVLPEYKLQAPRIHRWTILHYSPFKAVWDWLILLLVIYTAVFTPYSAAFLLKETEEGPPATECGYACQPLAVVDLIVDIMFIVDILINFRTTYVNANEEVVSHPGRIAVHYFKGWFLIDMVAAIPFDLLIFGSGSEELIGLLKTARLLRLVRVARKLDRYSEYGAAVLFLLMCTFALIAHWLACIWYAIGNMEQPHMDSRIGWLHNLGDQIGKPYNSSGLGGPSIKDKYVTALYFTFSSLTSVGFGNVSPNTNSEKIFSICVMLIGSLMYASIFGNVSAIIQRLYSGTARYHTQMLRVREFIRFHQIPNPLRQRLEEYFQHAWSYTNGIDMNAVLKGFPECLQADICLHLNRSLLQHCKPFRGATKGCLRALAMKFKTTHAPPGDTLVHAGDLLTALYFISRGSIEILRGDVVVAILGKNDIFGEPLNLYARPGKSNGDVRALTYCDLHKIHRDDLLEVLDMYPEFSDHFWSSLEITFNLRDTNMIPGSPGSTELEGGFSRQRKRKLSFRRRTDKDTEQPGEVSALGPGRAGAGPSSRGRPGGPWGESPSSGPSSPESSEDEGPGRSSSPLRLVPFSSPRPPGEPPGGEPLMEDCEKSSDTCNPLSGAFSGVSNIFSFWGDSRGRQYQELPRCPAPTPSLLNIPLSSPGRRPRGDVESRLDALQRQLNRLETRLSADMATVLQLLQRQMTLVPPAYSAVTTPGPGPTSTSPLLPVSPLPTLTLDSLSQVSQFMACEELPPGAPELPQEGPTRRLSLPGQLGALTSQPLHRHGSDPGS

| SMILES | hERG current change (%, negative = inhibition) at 1uM [%] |
| --- | --- |
| O=C(Nc1ccc2c(c1)OCO2)N1CCN(c2ccccc2)CC1 | 6.41 |
| O=C(Nc1cccc(S(=O)(=O)N2CCOCC2)c1)c1cn(-c2ccccc2)nc1-c1ccc(F)cc1 | 2.89 |
| CC(/C=C\c1cccnc1)=C/C(=O)[O-].[Na+] | 7.43 |
| COC(=O)c1c(NC(=O)CSc2ncnc3[nH]ncc23)sc2c1CCC2 | 5.61 |
| CCN(C(=O)c1ccc(S(=O)(=O)N2CCC(C)CC2)cc1)C1CCS(=O)(=O)C1 (centres unmarked) | 8.2 |
| CCN1CC2=C(OC(N)=C(C#N)C2c2cccs2)/C(=C/c2cccs2)C1 (centres unmarked) | 0.408 |
| O=C(NC(Cc1ccccc1)C(=O)O)/C(=C/c1ccccc1)NC(=O)c1ccccc1 (centres unmarked) | 11.7 |
| COc1ccc(NC(=O)C2CCN(c3cc(C)nc(-c4ccccc4)n3)CC2)cc1 | 2.19 |
| CCCN1CC(C)C(OC(C)=O)(c2ccccc2)CC1C.Cl (centres unmarked) | 7.03 |
| Cc1cc(C)nc(CC(N)=O)n1 | -6.16 |
| CCOC(=O)c1nnn(-c2nonc2N)c1CNC(C)C | -15.2 |
| O=C(c1cccnc1)c1cccnc1 | 15.2 |
| Cc1ccnc(NC(=O)c2cccc(OC(F)F)c2)n1 | 13.3 |
| CN(C)S(=O)(=O)N1CCN(S(=O)(=O)c2ccccc2)CC1 | 15.6 |
| COc1cc(CNCc2ccncc2)cc(OC)c1OC.Cl | 17 |
| O=C(c1cc(-c2ccc(Cl)cc2)on1)N1CCN(c2ccccc2)CC1 | 5.65 |
| CCOc1ccccc1NC(=O)C(CC)Sc1nc2ccsc2c(=O)n1CCC(=O)O (centres unmarked) | 12 |
| O=C(CCCOc1ccc(Cl)cc1Cl)NCCCO | -0.891 |
| Cc1ccccc1NS(=O)(=O)c1ccc(Cl)cc1 | 0.133 |
| O=S(=O)(c1ccccc1)N(CC(O)Cn1c2ccccc2c2ccccc21)c1ccccc1 (centres unmarked) | 5.61 |
| CC(C)(C)c1ccc(C(CC(=O)O)NC(=O)CCCc2ccccc2)cc1 (centres unmarked) | 10.4 |
| O=C(N1CCN=C1SCc1cccnc1)C12CC3CC(CC(C3)C1)C2 | 8.54 |
| CCCC(=O)Nc1ccc(NC(=O)c2ccco2)c(OC)c1 | 9.53 |

| SMILES | hERG current change (%, negative = inhibition) at 1uM [%] |
| --- | --- |
| O=C(NCCN1CCOCC1)c1cc2sccc2n1Cc1ccc(F)cc1 | -1.57 |
| CN(C(=O)C1CCN(S(=O)(=O)c2ccccc2)CC1)c1c(N)n(Cc2ccccc2)c(=O)[nH]c1=O | 15 |
| CC(Sc1ccc(Cl)cc1)C(=O)NCc1ccc2c(c1)OCO2 (centres unmarked) | 9.26 |
| COc1ccc(C(NC(=O)C(C)C)c2ccc3cccnc3c2O)cc1 (centres unmarked) | 5.67 |
| COc1ccc(N2CC(O)(c3ccc(F)cc3)[N+]3=C2CCCC3)cc1.[Br-] (centres unmarked) | 11.9 |
| COc1ccc(OC)c(NC(=O)COC(=O)/C=C/c2c(C)nn(C3CCS(=O)(=O)C3)c2Cl)c1 (centres unmarked) | 9.74 |
| CC(=O)Nc1ccc(C(=O)OCc2ccc(F)cc2Cl)cc1 | 22.5 |
| CC1CCCC(C)N1C(=O)c1cc(-c2cccs2)on1 (centres unmarked) | 6.03 |
| CSCCC(NC(=O)c1ccccc1)C(=O)NCCCSc1ccccc1 (centres unmarked) | 11.1 |
| O=C(CN1CCN(c2ccccn2)CC1)Nc1cccc(C(F)(F)F)c1 | 3.24 |
| Cc1ccc(NC2=NCCCS2)cc1Cl | 15.1 |
| CC1(C)CC(=O)C=C(NCC2CCCO2)C1 (centres unmarked) | 6.93 |
| O=C(N/C(=C\c1ccco1)C(=O)N1CCCC(CO)C1)c1ccccc1 (centres unmarked) | 15.7 |
| COc1ccccc1N1CCN(C(=O)c2cccc(NC3=NC4CS(=O)(=O)CC4S3)c2)CC1 (centres unmarked) | 8.82 |
| Fc1ccc(Oc2cnc3ccccc3n2)cc1 | 4.24 |
| CCN(CC)CCNC(CC(=O)Nc1ccc(Cl)cc1Cl)C(=O)O (centres unmarked) | 11.8 |
| CC1CC(=O)Nc2cc([N+](=O)[O-])ccc2N1 (centres unmarked) | 6.17 |
| Cc1ccccc1CN1CCN(C(=O)CC(C)C)CC1 | 2.76 |
| COC(=O)[C@@H]1C[C@H]1[C@@H](NP(=O)(c1ccccc1)c1ccccc1)c1ccccc1 | 15.7 |
| COc1ccc([N+](=O)[O-])cc1NC(=O)CSc1ccc2ccccc2c1 | 15.8 |
| CCC(=O)Nc1cc(C)c(NC(=O)C23CC4CC(CC(C4)C2)C3)cn1 | 12.7 |
| COc1ccc(C2NC3=C(CCCC3)C(C#N)(C#N)C2(C#N)C#N)cc1 (centres unmarked) | 15 |
| CC(=O)c1sc(NC(=O)COc2ccc(Cl)cc2Cl)nc1C | 13.3 |

| SMILES | hERG current change (%, negative = inhibition) at 1uM [%] |
| --- | --- |
| Cc1ccc(S(=O)(=O)NCc2ccccc2)s1 | 9.96 |
| Cc1ccc(-c2nn(-c3ccccc3)cc2/C=C(\C#N)C(=O)NCc2ccccc2)cc1 | 3.79 |
| COc1ccc(OC)c(NC(=O)NCc2ccc(F)cc2)c1 | 9.09 |
| O=C(CCCOc1ccc(Cl)cc1Cl)Nc1ccccn1 | 12.9 |
| Cn1c(=O)c2ncn(CC(=O)Nc3ccc(N4CCOCC4)cc3)c2n(C)c1=O | 3.73 |
| Cc1cc(NC(=O)c2cccc(S(=O)(=O)Nc3cccc(C(=O)O)c3)c2)no1 | 14.3 |
| COc1cccc(CNc2nc3ccccc3n2CCN2CCCCC2)c1 | -4.52 |
| CCN1C(=O)N(CC)C2NC(=S)NC21 (centres unmarked) | 7.44 |
| COc1ccc(C)cc1NC(=O)CSc1ccc(-c2ccco2)nn1 | 13.4 |
| O=C(CSc1nnc(CNC(=O)c2ccco2)o1)Nc1ccc(OC(F)(F)F)cc1 | -16.1 |
| S=C(NC1CCCCC1)N1CCN(C2CCCCC2)CC1 | 11.1 |
| Cc1cccc(N(CC(=O)NCc2ccco2)C(=O)CNS(=O)(=O)c2ccc(F)cc2)c1 | 22 |
| COc1ccccc1CNC(=S)Nc1ccc2nc(N3CCN(C)CC3)cc(C)c2c1 | 12 |
| COCCCn1c(C(=O)NCCC2=CCCCC2)cc2c(=O)n3ccccc3nc21 | 4.42 |
| CC1=CC2=NC(=O)/C(=C/c3cccn3Cc3ccccc3)C(=N)N2O1 | 2.81 |
| CCC(C)Sc1nnc(CNS(=O)(=O)c2ccc(F)cc2)n1C (centres unmarked) | 12.5 |
| CC1CCN(C(=O)c2[nH]cnc2C(=O)Nc2ccon2)CC1 | 13.3 |
| COc1ccc(N2C(=O)CC(N3CCC(O)(c4ccc(Cl)cc4)CC3)C2=O)cc1 (centres unmarked) | -6.36 |
| c1ccc(OCCCCN2CCOCC2)cc1 | -7.26 |
| Cc1cc(C(=O)COc2ccc3ccc(=O)oc3c2)c(C)n1C | 29.5 |
| CCS(=O)(=O)N1CCN(c2ccc(C(=O)NC3C4CC5CC(C4)CC3C5)cc2[N+](=O)[O-])CC1 (centres unmarked) | 9.48 |
| CS(=O)(=O)N(CC(=O)NCC1CCCO1)c1cc(Cl)c(Cl)cc1Cl (centres unmarked) | 10.7 |
| O=C(O)Cc1c(-c2ccccc2)c2cc(Cl)ccc2[nH]c1=O | 17.6 |

| SMILES | hERG current change (%, negative = inhibition) at 1uM [%] |
| --- | --- |
| Cc1cccc(N2C(=O)N3[C@H](c4ccc(Br)cc4)[C@@H]4C(=O)N(C(C)(C)C)C(=O)[C@@H]4[C@]3(C)C2=O)c1 | 9.74 |
| CSCCC(NC(=O)c1ccc(Cl)cc1Cl)C(=O)OC(C)C(=O)NCc1ccco1 (centres unmarked) | 2.93 |
| CCCNC(=S)N1CCN(c2nc(-c3ccc(C)cc3)cs2)CC1 | 10.9 |
| Cc1ccc(NC(=O)CS(=O)CC(=O)Nc2ccccc2-c2ccc(C)o2)cc1 (centres unmarked) | 11.6 |
| CCOc1ccc(S(=O)(=O)N2CCC(C(=O)NCc3ccncc3)CC2)cc1 | -14.5 |
| COc1ccc(/C=N/N2CCN(c3ccccc3OC)CC2)cc1Br | 12 |
| CCOC(=O)C1=C(Nc2ccccc2)CC(C)(O)C(C(=O)OCC)C1c1ccc(Br)cc1 (centres unmarked) | 4.86 |
| CC(=O)Nc1ccc(S(=O)(=O)NC(C)C(=O)OCCOc2ccc(F)cc2)cc1 (centres unmarked) | -1.55 |
| CCCS(=O)(=O)N1CCN(C2CCC(C)CC2)CC1.O=C(O)C(=O)O (centres unmarked) | 11 |
| CCCCCCCOC(=O)C1=C(C)Nc2ncnn2C1c1cccs1 (centres unmarked) | 17.2 |
| COc1ccc(C)cc1NC(=O)C(NCC(O)c1ccccc1)c1ccccc1.O=C(O)C(=O)O (centres unmarked) | 6.42 |
| CN1CCc2c(sc(NC(=O)C3CCCN3S(=O)(=O)c3ccc(Cl)s3)c2C(N)=O)C1.Cl (centres unmarked) | -17 |
| Cl.Nc1ccc2c(c1)nc(Cc1ccccc1)n2CCO | 10.9 |
| Cc1ccccc1NC(=O)COC(=O)/C=C/c1cn(-c2ccccc2)nc1-c1cccnc1 | 7.75 |
| CS(=O)(=O)c1ccccc1-c1nnc(NC(=O)c2cccc(N3C(=O)CCC3=O)c2)o1 | 15.7 |
| O=C(NCc1cccnc1)NC1CCCN1S(=O)(=O)c1ccc(Cl)cc1 (centres unmarked) | 2.28 |
| O=C(CN1C(=O)C2C3C=CC(C3)C2C1=O)NCCC1=CCCCC1 (centres unmarked) | 2.11 |
| O=C(/C=C/c1ccc(Br)cc1)NCc1cccs1 | 16.2 |
| CCOc1cccc2sc(NC(=O)CC)nc12 | 13.1 |
| O=C(CN1C(=O)NC2(CCc3ccccc3C2)C1=O)NCc1ccco1 (centres unmarked) | 4.74 |
